{"source": "paper PMC13083723", "about": "(Patterns, 2026)", "note": "In all, about 5,400 compounds went through this assay and about 190 (3.5%) showed an effect of 50% or more. Some of the results follow."}
{"tested_on": "Vero-E6", "test": "primary screen, phospholipidosis by LipidTOX staining; higher = more effect of the substance", "settings": "10 µM", "procedure,_shortened": "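Drug-induced phospholipidosis detected with HCS LipidTOX Red reagent in Vero-E6 cells. Compounds tested at 10 μM, with amiodarone (10 μM) as positive control and DMSO (0.1 v/v %) as vehicle.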", "units": {"result_ITMP": "%"}}
{"molecule": "CCCC(=O)Nc1ncnc2c1ncn2C1O[C@@H]2COP(=O)([O-])O[C@H]2[C@H]1OC(=O)CCC", "note": "(stereo partly drawn)", "result_ITMP": -5.79}
{"molecule": "C=CC(N)CCC(=O)O", "note": "(stereo not drawn)", "result_ITMP": 0.41}
{"molecule": "COc1ccc2c(C(=S)N(C)CC(=O)O)cccc2c1C(F)(F)F", "result_ITMP": -2.48}
{"molecule": "Cc1ncc(C[n+]2csc(CCO)c2C)c(N)n1", "result_ITMP": 1.4}
{"molecule": "CCN[C@H]1CN(CCCOC)S(=O)(=O)c2sc(S(N)(=O)=O)cc21", "result_ITMP": 2.96}
{"molecule": "Cc1ccc2c(c1CCC(=O)O)CC[C@@H](NS(=O)(=O)c1ccc(Cl)cc1)C2", "result_ITMP": -2.38}
{"molecule": "CC(C)Oc1cccc(CC(=O)N2CCC[C@](CC[N+]34CCC(c5ccccc5)(CC3)CC4)(c3ccc(Cl)c(Cl)c3)C2)c1", "result_ITMP": -1.31}
{"molecule": "CC(=O)OCC(=O)[C@@]1(O)CC[C@H]2[C@@H]3CCC4=CC(=O)C=C[C@]4(C)[C@@]3(Cl)[C@@H](Cl)C[C@@]21C", "result_ITMP": 6.94}
{"molecule": "CC[N+](C)(CC)CCOC(=O)C1c2ccccc2Oc2ccccc21", "result_ITMP": -5.19}
{"molecule": "O=C(O)CN1C(=O)c2cccc3cccc(c23)C1=O", "result_ITMP": -2.4}
{"molecule": "CCCCN(CCCC)CCCOC(=O)c1ccc(N)cc1", "result_ITMP": 4.87}
{"molecule": "COC(=O)Nc1nc2cc(C(=O)c3cccs3)ccc2[nH]1", "result_ITMP": 2.55}
{"molecule": "COc1cc(Br)c(Nc2nc(-c3c(C)nc4ncccn34)cs2)c(Br)c1", "result_ITMP": -11.9}
{"molecule": "O=C(O)CCCCCCCC(=O)O", "result_ITMP": -9.11}
{"molecule": "O=C(C(c1ccccc1)c1ccccc1)N1CCN(CC(O)COc2cccc3ncccc23)CC1", "note": "(stereo not drawn)", "result_ITMP": -1.9}
{"molecule": "CC(O)CN(CCN(CC(C)O)CC(C)O)CC(C)O", "note": "(stereo not drawn)", "result_ITMP": 7.78}
{"molecule": "CC(C)(C)C(=O)CN1C(=O)[C@H](NC(=O)Nc2cccc(C(=O)O)c2)CN(C2CCCCC2)c2ccccc21", "result_ITMP": -0.97}
{"molecule": "OCCN1CCN(CC/C=C2/c3ccccc3Sc3ccc(C(F)(F)F)cc32)CC1", "result_ITMP": 83.6}
{"molecule": "O=C(NC[C@H](O)CN1CCc2ccccc2C1)c1cc(NC2COC2)ncn1", "result_ITMP": -0.39}
{"molecule": "COc1cc2ncnc(Sc3nnc(C)s3)c2cc1OC", "result_ITMP": -3.89}
{"molecule": "NC(=O)CN1CCCC1=O", "result_ITMP": 4.25}
{"molecule": "CN(C)C/C=C/C(=O)Nc1ccc(C(=O)Nc2cccc(Nc3ncc(Cl)c(-c4c[nH]c5ccccc45)n3)c2)cc1", "result_ITMP": 0.99}
{"molecule": "O=C1NC(=O)C(c2cnc3ccccn23)=C1c1cn2c3c(cc(F)cc13)CN(C(=O)N1CCCCC1)CC2", "result_ITMP": 0.98}
{"molecule": "COc1cc2c(cc1OC)C(C)NCC2", "note": "(stereo not drawn)", "result_ITMP": -8.6}
{"molecule": "Cc1ccc(S(=O)(=O)c2ccc([N+](=O)[O-])o2)cc1", "result_ITMP": -15.1}
{"molecule": "NCCc1c[nH]cn1", "result_ITMP": -3.34}
{"molecule": "NCc1cc(O)no1", "result_ITMP": -0.22}
{"molecule": "CCOC(=O)Nc1ccc2c(c1)N(C(=O)CCN(CC)CC)c1ccccc1S2", "result_ITMP": 12}
{"molecule": "CCCCN(CC)c1c([N+](=O)[O-])cc(C(F)(F)F)cc1[N+](=O)[O-]", "result_ITMP": 4.6}
{"molecule": "CCN(CCO)CCCOc1ccc2c(Nc3cc(CC(=O)Nc4cccc(F)c4)n[nH]3)ncnc2c1", "result_ITMP": -2.36}
{"molecule": "Cc1ccc(-c2csc3ncnc(SCCC(=O)O)c23)cc1", "result_ITMP": -1.68}
{"molecule": "Cc1ccc(OC[C@@H](O)[C@H](C)NC(C)C)c2c1CCC2", "note": "(racemic)", "result_ITMP": 10.4}
{"molecule": "OC(Cn1cncn1)(Cn1cncn1)c1ccc(F)cc1F", "result_ITMP": -0.51}
{"molecule": "CCOc1ccc(/N=C(/C)Nc2ccc(OCC)cc2)cc1", "result_ITMP": 3.29}
{"molecule": "N=C1CCCN1Cc1[nH]c(=O)[nH]c(=O)c1Cl", "result_ITMP": -1.92}
{"molecule": "COc1cccc(CN2C[Si](C)(C)O[Si](C)(C)C2)c1", "result_ITMP": -1.81}
{"molecule": "CC(=O)[C@@]1(O)CC[C@H]2[C@@H]3C=C(Cl)C4=CC(=O)[C@@H]5C[C@@H]5[C@]4(C)[C@H]3CC[C@@]21C", "result_ITMP": -6.01}
{"molecule": "C[C@@H](NCCCc1cccc(C(F)(F)F)c1)c1cccc2ccccc12", "result_ITMP": 61.8}
{"molecule": "CC(=O)Nc1cccc(-n2c(=O)n(C3CC3)c(=O)c3c(Nc4ccc(I)cc4F)n(C)c(=O)c(C)c32)c1", "result_ITMP": -7.95}
{"molecule": "C[C@@H]1Cc2c([nH]c3ccccc23)[C@@H](c2c(F)cc(/C=C/C(=O)O)cc2F)N1CC(C)(C)F", "result_ITMP": -1.72}
{"molecule": "CC[C@H](C)C1NC(=O)[C@H](Cc2ccc(O)cc2)NC(=O)[C@@H](N)CSSC[C@@H](C(=O)N2CCC[C@H]2C(=O)N[C@@H](CC(C)C)C(=O)NCC(N)=O)NC(=O)[C@H](CC(N)=O)NC(=O)[C@H](CCC(N)=O)NC1=O", "note": "(stereo partly drawn)", "result_ITMP": -4.94}
{"molecule": "CC[N+](C)(C)c1cccc(O)c1", "result_ITMP": 3.2}
{"molecule": "C=CCN1C[C@H](C(=O)N(CCCN(C)C)C(=O)NCC)C[C@@H]2c3cccc4[nH]cc(c34)C[C@H]21", "result_ITMP": 47.9}
{"molecule": "CN1CCC(=C2c3ccccc3C=Cc3ccccc32)CC1", "result_ITMP": 77.3}
{"molecule": "CC(C)Oc1ccc(-c2nc(-c3cccc4c3CC[C@@H]4NCCO)no2)cc1C#N", "result_ITMP": 39.4}
{"molecule": "CC(=O)O[C@@H]1CC[C@@]2(C)C(CC[C@]3(C)C2C(=O)C=C2[C@@H]4[C@@H](C)[C@H](C)CC[C@]4(C)CC[C@]23C)[C@@]1(C)C(=O)O", "note": "(stereo partly drawn)", "result_ITMP": -2.41}
{"molecule": "CSc1nc(-c2ccc(F)cc2)c(-c2ccnc(NC(C)c3ccccc3)c2)[nH]1", "note": "(stereo not drawn)", "result_ITMP": -0.82}
{"molecule": "CC(C)(C)NC[C@@H](O)COc1cccc2c1CCCC2=O", "result_ITMP": -7.08}
{"molecule": "CO[C@H]1/C=C/O[C@@]2(C)Oc3c(C)c(O)c4c(O)c(c(/C=N/N5CCN(C6CCCC6)CC5)c(O)c4c3C2=O)NC(=O)/C(C)=C\\C=C\\[C@H](C)[C@H](O)[C@@H](C)[C@@H](O)[C@@H](C)[C@H](OC(C)=O)[C@@H]1C", "result_ITMP": 0.43}
{"molecule": "Nc1n[nH]c2nnc(-c3c(-c4ccccc4)nn4ccccc34)cc12", "result_ITMP": -4.37}
{"molecule": "C[C@@H](Oc1ccc2[nH]nc(/C=C/c3cnn(CCO)c3)c2c1)c1c(Cl)cncc1Cl", "result_ITMP": 3.33}
{"molecule": "CC(C)(C=O)Cc1cc(C(C)(C)C)c(O)c(C(C)(C)C)c1", "result_ITMP": -1.77}
{"molecule": "O=P1(NCCCl)OCCCN1CCCl", "note": "(stereo not drawn)", "result_ITMP": 0.96}
{"molecule": "CCCCCCCCCCCCC/C=C/[C@@H](O)[C@@H](N)COP(=O)([O-])OCC[N+](C)(C)C", "result_ITMP": -4.65}
{"molecule": "COc1ccc(C(=O)c2c(C)n(CCN3CCOCC3)c3cc(I)ccc23)cc1", "result_ITMP": -2.66}
{"molecule": "CN1[C@@H](CC(=O)c2ccccc2)CCC[C@H]1C[C@H](O)c1ccccc1", "result_ITMP": 13.8}
{"molecule": "CN1CCN(CC/C=C2/c3ccccc3Sc3ccc(S(=O)(=O)N(C)C)cc32)CC1", "result_ITMP": 61.9}
{"molecule": "CC(C)N1CCN(c2ccc(OC[C@H]3CO[C@](Cn4cncn4)(c4ccc(Cl)cc4Cl)O3)cc2)CC1", "note": "(racemic)", "result_ITMP": 3.2}
{"molecule": "CNC1CCCN(c2c(F)cc3c(=O)c(C(=O)O)cn(C4CC4)c3c2OC)C1", "note": "(stereo not drawn)", "result_ITMP": -2.1}
{"molecule": "Cn1c(CNc2ccc(C(=N)N)cc2)nc2cc(C(=O)N(CCC(=O)O)c3ccccn3)ccc21", "result_ITMP": -4.29}
{"molecule": "c1ccc(-c2n[nH]cc2-c2ccnc3ccccc23)nc1", "result_ITMP": -7.58}
{"molecule": "C=C1CC[C@H](O)C/C1=C/C=C1\\CCC[C@]2(C)[C@@H]([C@H](C)CCCC(C)C)CC[C@@H]12", "result_ITMP": -5.38}
{"molecule": "CCCCn1c(-c2ccccc2)nc(-c2ccccc2)c1CN(Cc1ccc2c(c1)OCO2)Cc1ccc2c(c1)OCO2", "result_ITMP": 2.47}
{"molecule": "Oc1ccc(Cl)cc1", "result_ITMP": -4.68}
{"molecule": "CN1CC[C@@]2(C)c3cc(OC(=O)Nc4ccccc4)ccc3N(C)[C@@H]12", "result_ITMP": -9.99}
{"molecule": "CC(C)(C)/[N+]([O-])=C/c1ccc(S(=O)(=O)[O-])cc1S(=O)(=O)[O-]", "result_ITMP": -0.44}
{"molecule": "CC(=O)N1N=C(c2ccc(N)cc2)c2cc3c(cc2C[C@H]1C)OCO3", "result_ITMP": -1.29}
{"molecule": "Cn1ncnc1COc1nn2c(-c3c(F)cccc3F)nnc2cc1C1CCC1", "result_ITMP": -9.74}
{"molecule": "CS(=O)(=O)CS(=O)(=O)OCCCl", "result_ITMP": 5.67}
{"molecule": "Nc1nc(Nc2ccc3c(c2)CC[C@@H](N2CCCC2)CC3)nn1-c1cc2c(nn1)-c1ccccc1CCC2", "result_ITMP": 32.1}
{"molecule": "NNCCc1ccccc1", "result_ITMP": -4.17}
{"molecule": "COc1ccc(Cl)c(Nc2ncnc3cc(OCC4CCN(C)CC4)c(OC)cc23)c1", "result_ITMP": 9.6}
{"molecule": "CCCCCCCCCCCCCCCC(=O)OC(C)C", "result_ITMP": 7.15}
{"molecule": "CC(C)c1c(CN(C)C(C)Cc2ccccc2)n(C)n(-c2ccccc2)c1=O", "note": "(stereo not drawn)", "result_ITMP": 2.22}
{"molecule": "C#Cc1cccc(Nc2ncnc3cc(OC)c(OCCCCCCC(=O)NO)cc23)c1", "result_ITMP": -2.48}
{"molecule": "C[n+]1c2cc(N)ccc2cc2ccc(N)cc21.Nc1ccc2cc3ccc(N)cc3nc2c1", "result_ITMP": 0.92}
{"molecule": "O=C(O)C1CN(Cc2ccc(-c3nc4cc(Cc5ccccc5F)ccc4s3)c(F)c2)C1", "result_ITMP": -6.21}
{"molecule": "CC(=O)S[C@@H]1CC2=CC(=O)CC[C@]2(C)[C@H]2CC[C@@]3(C)[C@@H](CC[C@@]34CCC(=O)O4)[C@H]12", "result_ITMP": -3}
{"molecule": "CCOC(=O)C1=C(C)NC2=C(C(=O)CC(C)(C)C2)C1c1ccc(-c2ccccc2)cc1", "note": "(stereo not drawn)", "result_ITMP": 3.49}
{"molecule": "Nc1ncnc2c1c(-c1cccc(OCc3ccccc3)c1)cn2[C@H]1C[C@@H](CN2CCC2)C1", "result_ITMP": 69.4}
{"molecule": "COc1cccc2c1c(O)c(C(=O)N(C)c1ccc(C(F)(F)F)cc1)c(=O)n2C", "result_ITMP": -2.34}
{"molecule": "FC(F)(F)c1ccc(CNc2ccc(Cc3c[nH]c4ncccc34)cn2)cc1", "result_ITMP": -4.34}
{"molecule": "CCCc1cc(C(N)=S)ccn1", "result_ITMP": 1.13}
{"molecule": "COc1cc2c(Nc3ccc(NC(=O)c4ccccc4)cc3)ncnc2cc1OCCCN1CCOCC1", "result_ITMP": -3.61}
{"molecule": "CC(C)CNc1ccnc(NCc2csc(-c3ccccc3)n2)n1", "result_ITMP": 46.9}
{"molecule": "CC(=O)Nc1ccc(C(=O)Nc2ccccc2N)cc1", "result_ITMP": 10}
{"molecule": "CC(Cc1cccc(C(F)(F)F)c1)NCCOC(=O)c1ccccc1", "note": "(stereo not drawn)", "result_ITMP": 6.92}
